In all, about 360,000 compounds went through this assay and about 2,600 (0.72%) were called active. The shares of active, inactive and inconclusive entries below differ from those in the screen. The call rests on the fitted dose curve; in most records, active means well fitted inhibition curve with a large enough effect; inconclusive means small, poorly fitted or top-dose-only effect; inactive means no such curve, though single readings can be large or run the other way. Potencies beside an inconclusive call are fits to weak or partial responses and may not hold up.
assay: Primary qHTS for Inhibitors of ATXN expression; details: HEK-293 ATXN2-luciferase reporter, luminescence, 24 h; activity change, negative = inhibition: at 57 µM (top of the series); further: nearly all actives have a fitted effect of over 55% in size
Outline: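 ATXN2-luciferase reporter cells (luciferase flanked by upstream and downstream ATXN2 gene portions) were treated 24 h at 37 °C with compounds at up to 57 uM. SteadyGlo luminescence gave expression; GF-AFC fluorescence gave viability.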
On the % scale 0 is the no-effect control and ±100 the full control effect; potency means the concentration at half of the fitted maximal effect; tags describe the fitted curve by direction and shape.

Compound	Potency	activity change, negative = inhibition
Fc1ccc(-[n+]2nc(Nc3ccccc3)sc2-c2c3ccccc3cc3ccccc23)cc1	active: 25.1 µM	
NC(=O)CC(NC(=O)c1ccc(Br)cc1)c1ccc(N2CCC(Br)CC2)c([N+](=O)[O-])c1 (stereo not drawn)	inconclusive: 22.4 µM [inhibitor, partial curve, poor fit]	
Cc1cccc2nc(-c3cccnc3)c(Nc3ccccc3)n12	inconclusive: 39.8 µM [inhibitor, single point]	
CCN(c1ccccc1)S(=O)(=O)c1ccc(C(=O)Nc2cccc(C)n2)cc1		inactive: -12.5%
Cc1ccccc1OCC(=O)OC1CCN(C)CC1		inactive: 7.01%
CCC1CCCCN1S(=O)(=O)c1ccc(C(=O)Nc2nnc(C3CC3)o2)cc1 (stereo not drawn)	inconclusive: 15.8 µM [inhibitor, single point]	
CCOc1ccc(CN(C)C(=O)CCc2ccc(S(=O)(=O)N3CCCCCC3)cc2)cc1	inconclusive: 20 µM [inhibitor, partial curve, poor fit]	
CCC(C)N1C(=O)CCC1C(=O)O (stereo not drawn)		inactive: -6.92%
CCN(CC)S(=O)(=O)c1cccc(C(=O)Nc2nc3cc4c(cc3s2)OCCO4)c1	inconclusive: 35.5 µM [inhibitor, single point]	
Cc1ccc2cccc(N=Cc3c(C)[nH]n(-c4ccccc4)c3=O)c2n1	active: 28.2 µM	
CN(C)CC/C=C1/c2ccc(F)cc2Sc2ccc(Cl)cc21	inconclusive: 17.8 µM [inhibitor, single point]	
CC1=C(n2nnc([N+](=O)[O-])n2)C(c2cccnc2)C(C#N)=C(N)O1 (stereo not drawn)	inconclusive: 17.8 µM [inhibitor, single point]	
Clc1cccc(N/N=C/c2ccc(N3CCOCC3)cc2)c1		inactive: 17%
COC(=O)Cn1cc(/C=C(/C#N)C(=O)N2CCOCC2)c2ccccc21		inactive: -6.21%
O=[N+]([O-])c1cccc(-c2ccc(/C=N/Nc3nc(N4CCCCC4)nc(N4CCCCC4)n3)o2)c1	inconclusive: 2.51 µM [inhibitor, full curve, poor fit]	
O=C(O)C[C@@H](CNC(=O)COc1ccc2ccc(=O)oc2c1)c1ccc(Cl)cc1		inactive: 4.51%
Cc1cc(OCC(=O)NC2CCN(Cc3ccccc3)CC2)c2c(C)c(C)c(=O)oc2c1		inactive: 0.833%
COc1ccc(Oc2c(Cl)cnn(-c3ccccc3)c2=O)cc1	inconclusive: 28.2 µM [inhibitor, single point]	
Cc1ccc(S(=O)(=O)N2C[C@@H]3CCCC[C@@H]3[C@@H](C)[C@H]2c2cn(Cc3ccccc3)c3ccccc23)cc1	inconclusive: 3.16 µM [inhibitor, partial curve, poor fit]	
Cc1ccc(-c2noc(CSc3nnc(Cc4cccs4)n3-c3ccccc3)n2)cc1	inconclusive: 39.8 µM [inhibitor, single point]	
O=C(C1CCC(CNc2nc(=S)[nH]c3ccccc23)CC1)N1CCN(c2ccccn2)CC1 (stereo not drawn)		inactive: -24.9%
CCN1CCc2c(sc(NC(=O)c3ccc(S(=O)(=O)N4CCOCC4)cc3)c2C(=O)OC)C1	inconclusive: 39.8 µM [inhibitor, single point]	
Cc1ccc(CCNC(=O)c2ccc3c(=O)n(-c4ccccc4)c(=O)[nH]c3c2)cc1		inactive: -4.25%

Compound	Potency	activity change, negative = inhibition
O=C1C(c2ccnc3ccccc23)=C(O)c2ccccc21	inconclusive: 11.2 µM [inhibitor, single point]	
COc1cccc(/C=N/NC(=O)c2cc3cc([N+](=O)[O-])ccc3s2)c1O	inconclusive: 4.47 µM [inhibitor, partial curve, poor fit]	
Cc1ccc2[nH]cc(CCNC(=O)c3ccc4c(c3)OCO4)c2c1		inactive: 2.6%
C/C(=N\NC(=O)Cc1ccc(Cl)cc1)c1ccccc1O	inconclusive: 14.1 µM [inhibitor, partial curve, poor fit]	
CN(C(=O)CSc1nc(C2CC2)n(-c2ccccc2)n1)C1CCS(=O)(=O)C1 (stereo not drawn)		inactive: 0.536%
CC1Cc2cc(S(=O)(=O)NCc3ccc(N(C)C)cc3)ccc2N1C(=O)C1CCC1 (stereo not drawn)	inconclusive: 11.2 µM [inhibitor, partial curve, poor fit]	
Cc1c(CN2CCN(S(C)(=O)=O)CC2)sc2c(N3CCOCC3)nc(-c3cnc(N)nc3)nc12	inconclusive: 1.72 µM [inhibitor, partial curve]	
O=C(Nc1ccc(C(F)(F)F)cc1)N1CCN(c2ccnc3cc(Cl)ccc23)CC1	inconclusive: 3.55 µM [inhibitor, partial curve, poor fit]	
COc1cc(/C=C/CN2CCC(C(=O)NC(c3ccc(F)cc3)c3ccc4ccccc4n3)CC2)ccc1OC(C)=O (stereo not drawn)	inconclusive: 39.8 µM [inhibitor, partial curve, poor fit]	
CCN1CCN(C(=O)Cn2ncc3c2-c2ccccc2OC3)CC1		inactive: 3.66%
COc1ccc(CCn2c(-n3nc(C)cc3C)nc3c2c(=O)[nH]c(=O)n3C)cc1		inactive: -8.35%
Cc1ccc(C)c(NS(=O)(=O)c2cc(C(=O)NCCSC3CCCCC3)ccc2C)c1	inconclusive: 31.6 µM [inhibitor, single point]	
CC(C)(C)C1CCC2(CC1)C(C#N)=C(SCC(=O)Nc1ccccc1)NC(=O)C2C#N (stereo not drawn)	inconclusive: 12.6 µM [inhibitor, partial curve]	
O=c1c2ccccc2c(C=NCCc2ccccc2)c(O)n1Cc1ccccc1	inconclusive: 39.8 µM [inhibitor, single point]	
Cc1cc(C)n(-c2nc(NCCCN(C)C)c3c4c(sc3n2)COC(C)(C)C4)n1		inactive: 9.96%
COc1ccc(/C=C/C(=O)Nc2sc(Cc3ccccc3)c(C)c2C(N)=O)cc1	inconclusive: 22.4 µM [inhibitor, partial curve, poor fit]	
Cc1nonc1OC(C)CNc1ccc([N+](=O)[O-])cc1 (stereo not drawn)	inconclusive: 31.6 µM [inhibitor, partial curve, poor fit]	
Cc1nc2cc(-c3ccccc3)sc2c(=O)n1N	active: 0.891 µM	
O=C1C(F)=CC(COC(c2ccccc2)(c2ccccc2)c2ccccc2)OC1n1cc(F)c(=O)[nH]c1=O (stereo not drawn)	active: 3.36 µM	
CC(C)N(Cc1ccccc1)C(=O)/C=C/c1ccccc1[N+](=O)[O-]	inconclusive: 22.4 µM [inhibitor, partial curve, poor fit]	
Cc1cccc(/C=N/NC(=O)c2c(-c3ccccc3)noc2C)c1O	active: 3.55 µM	
Cc1cccc(C)c1NC(=S)NCCc1ccccn1		inactive: 1.96%
COc1ccc(C(=O)Nc2nc(-c3ccc(S(=O)(=O)N4CCOCC4)cc3)cs2)cc1	active: 25.1 µM	

Compound	Potency	activity change, negative = inhibition
Cc1cc(NC(=O)CC2(CC(=O)O)CCCC2)n(C)n1		inactive: 0.852%
COc1ccc(C(=O)NCCn2cc(SCC(=O)Nc3ccc4c(c3)OCCO4)c3ccccc32)cc1OC	inconclusive: 39.8 µM [inhibitor, partial curve, poor fit]	
CCOC(=O)c1c(Oc2ccc(C(C)=O)cc2)nnc(-c2ccccc2)c1-c1ccccc1	inconclusive: 39.8 µM [inhibitor, single point]	
CCN(CC)CCCNC(=O)c1ccc2c(Cl)c3c(nc2c1)CCCC3	active: 28.2 µM	
Cc1ccc(OCCCSc2nc(-c3ccc(C(C)(C)C)cc3)nc3cc(=O)[nH]n23)cc1C		inactive: 8.05%
c1ccc(C(CN2CCOCC2)c2ccccc2)cc1		inactive: -8.86%
COc1ccc(C(=O)c2[nH]c(N)c(C(=O)NCCc3c[nH]c4ccccc34)c2-c2ccc(Cl)c(F)c2)cc1	inconclusive: 39.8 µM [inhibitor, single point]	
Cc1nnsc1NC(=O)OCc1ccc(Cl)cc1Cl		inactive: -0.664%
Cc1cc(NC(=O)CSCC(=O)OCC(=O)Nc2cc(C)c(C)cc2[N+](=O)[O-])no1		inactive: 1.05%
COc1ccc(-c2cc3nc(NCC4CCCCC4)n(C)c(=O)c3s2)cc1OC	inconclusive: 35.5 µM [inhibitor, partial curve, poor fit]	
Cc1ccc(S(=O)(=O)NCCc2csc(-c3cccc(F)c3)n2)cc1	inconclusive: 20 µM [inhibitor, partial curve, poor fit]	
Cc1cc(Nc2nc(N[C@@H](C)c3ncc(F)cn3)ncc2Cl)n[nH]1	inconclusive: 24.3 µM [inhibitor, single point]	
COc1cc(NC(=O)CCC(=O)N2CCN(S(=O)(=O)c3ccc(C)cc3)CC2)cc(OC)c1		inactive: 2.9%
N=c1c2c(n(Cc3cccc(Cl)c3)c3c1CCC3)CCCC2	inconclusive: 14.1 µM [inhibitor, partial curve, poor fit]	
Cc1cc2cc(C)c3nnc(SCc4ccccn4)n3c2cc1C	inconclusive: 11.2 µM [inhibitor, partial curve, poor fit]	
O=C(Nc1ccc(-c2nc3cc(NC(=O)c4cccs4)ccc3o2)cc1)c1cccs1	active: 10 µM	
C[C@]12c3[nH]c4cc(-c5ccco5)ccc4c3CCN1C(=O)[C@@H](CC(=O)NCCC1=CCCCC1)C[C@@H]2C(=O)N1CCCCC1	inconclusive: 39.8 µM [inhibitor, partial curve, poor fit]	
CC(Oc1ccc(F)cc1)C(=O)Nc1nc(-c2ccccn2)cs1 (stereo not drawn)	active: 7.94 µM	
CCCNC1=C(N(C(C)=O)c2cccc(F)c2)C(=O)c2ccccc2C1=O	active: 28.2 µM	
COc1ccc2[nH]c3nc(SCc4nnc(-c5ccc(C)cc5)o4)nnc3c2c1	active: 20 µM	
CCCCC(=O)N(C)c1c(CC)nc2c(OCC=C(C)C)cccn12		inactive: -34%
CCCS(=O)(=O)c1nnnn1-c1cccc(OC)c1	inconclusive: 39.8 µM [inhibitor, single point]	
